Drawing on PubChem BioAssay AID1346428 (National Center for Advancing Translational Sciences (NCATS), 2018), this text covers activation for 85 compounds.

Molecules are shown by their SMILES. Several values for one entry are separate records, joined by “and”; a condition that tells them apart may be missing. Equal entries are not always repeated. Among all 48,000 compounds or so, about 1,200 (2.5%) were called active. Inconclusive results (about 2%) are left out.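 The calls were made as follows: active = activation of at least 60% and not above a set upper limit (about 1 call in 100 departs from these limits); inconclusive = activation of 40% to 60%, or above that upper limit; inactive = activation under 40%.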 Some of the results follow.

UniProt O75388, sequence (O75388 whole entry, looked up): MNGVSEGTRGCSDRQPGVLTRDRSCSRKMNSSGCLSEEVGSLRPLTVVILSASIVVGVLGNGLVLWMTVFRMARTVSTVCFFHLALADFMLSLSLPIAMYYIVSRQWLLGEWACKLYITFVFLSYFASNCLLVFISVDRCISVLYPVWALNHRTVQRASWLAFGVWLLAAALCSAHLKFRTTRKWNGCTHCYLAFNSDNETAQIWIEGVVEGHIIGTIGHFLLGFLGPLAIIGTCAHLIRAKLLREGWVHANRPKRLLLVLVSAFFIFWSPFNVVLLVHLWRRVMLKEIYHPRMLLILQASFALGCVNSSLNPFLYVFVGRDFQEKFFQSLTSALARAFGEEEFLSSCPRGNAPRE

This test deals with Probable G-protein coupled receptor 32 (Homo sapiens) (UniProt O75388). The experiment in a line: qHTS for Agonists of Human Resolvin D1 Receptor DRV1. Also: 0% is about no effect. The conditions noted are these: CHO-K1 GPR32 beta-arrestin PathHunter luminescence, 90 min; at 76.9 µM; stronger effect = higher value; zero percent set by DMSO-only wells. The method, boiled down:
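Step 1: seed CHO-K1 GPR32 beta-arrestin cells, 2,500/well, overnight at 37 °C. Step 2: add compounds, 90 min at 37 °C. Step 3: detection reagent, 1 h ambient, then luminescence.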
Turning to `CCOc1ccc(CCNC(=O)Cn2nc(CC)n3c(cc4c(OC)cccc43)c2=O)cc1OCC`, the activation was inactive: -1.64%. Under `Cc1cccc(N2CCN(C(=O)CN3C(=O)COc4ccc(S(=O)(=O)N5CCCC5)cc43)CC2)c1C` stands inactive: -2.28%; under `CCc1ccc(CNC(=O)C2CCN(C(=O)c3ccc(-n4ccc5ccccc54)s3)CC2)cc1`, inactive: 13.6%; under `O=C1CC(c2ccc(F)cc2)c2c(n3c(nc4ccccc43)[nH]c2=O)N1` (stereo not given), inactive: 3.55%.

Regarding `CCCOc1ccc(C(=O)Nc2sc3c(c2C(=O)OCC)CCCCC3)cc1`, the activation is inactive: 8.07%.

Take `O=C(O)CCCCC1CCSS1` (stereo not given): the activation is inactive: -7.37%.

As for `COCC(=O)O[C@]1(CCN(C)CCCc2nc3ccccc3[nH]2)CCc2cc(F)ccc2[C@@H]1C(C)C`, the activation is inactive: 36% and inactive: 48.5%. Under `Cc1oc(-c2cccc(Br)c2)nc1CSc1nc2ncccc2[nH]1` stands inactive: -4.19%; under `Cc1ccccc1CS(=O)(=O)c1ncc(Cl)c(C(=O)Nc2nnc(C(C)C)s2)n1`, inactive: -2.03%. Under `Oc1ccc(NCc2ccccc2OCc2ccccc2Cl)cc1` stands inactive: -22.9%; under `CN(C)c1ccc(NC(=O)CSC2=Nc3ccccc3C3=NC(CC(=O)NCc4ccc5c(c4)OCO5)C(=O)N23)cc1` (stereo not given), inactive: 9.8%; under `Cc1ccc(S(=O)(=O)Nc2c(C)nc3nc(C)[nH]n3c2=O)c(C)c1`, inactive: -7.18%. Under `Cc1cccc(-n2ncc(C(=O)Nc3ccc4c(c3)OCO4)c2C2CCN(C(=O)OC(C)(C)C)CC2)c1` stands inactive: -24.8%. As for `COc1ccc(Cl)cc1NC(=O)c1c(NCc2cccs2)sc2c1CCCC2`, the activation was inactive: -21.6%. `COc1ccc(C(=O)NCc2nnc(SCC(=O)Nc3ccc(F)cc3)n2-c2ccccc2)cc1`: the activation was inactive: 2.93%. For `COC(=O)c1ccc(NC(=O)CSc2nc3c(c(=O)n(C)c(=O)n3C)n2Cc2ccccc2)cc1`, the activation is inactive: -8.91%.

For `CC(C)C(=O)c1cc2c(cc1NC(=O)c1ccccc1F)OCCO2`, the activation is inactive: -12.9%. Under `Cc1ccc(NC(=O)Cn2cnc3c(oc4ccccc43)c2=O)cc1` stands inactive: 8.71%; under `Cc1ccc(C(=O)c2oc3ccccc3c2NC(=O)COc2ccc(C(C)(C)C)cc2)cc1`, inactive: -11.5%; under `Cc1ccc(COc2cccc3cc(-c4noc(-c5ccc(C)cc5)n4)c(=O)oc23)cc1`, inactive: -4.91%.

As to `Oc1cc2c(c(Cl)c1O)CCNCC2c1ccccc1` (stereo not given), the activation was inactive: 6.33%. Under `Cc1cc(Nc2ccc(Cl)cc2)n2cnnc2n1` stands inactive: -4.25%; under `CC(=O)N1CCc2cc(S(=O)(=O)CCC(=O)N3CCN(c4ccccc4F)CC3)ccc21`, inactive: 15.9%. Under `Cc1ccccc1-c1noc(-c2cc(C(C)C)[nH]n2)n1` stands inactive: -10.9%; under `COc1ccccc1Cc1nc2ccccc2nc1SCC(=O)N1CCCc2ccccc21`, inactive: -16.6%.

As for `CCOc1ccccc1N1CC(c2nc3ccccc3n2CCOc2ccccc2OC)CC1=O` (stereo not given), the activation is inactive: -9.09%. `CCN(CC)S(=O)(=O)c1ccc(C(=O)O)cc1`: the activation is inactive: 4.79%.

With `COc1ccc(-c2nnc(SCC(=O)c3ccc([N+](=O)[O-])cc3)o2)cc1OC`, the activation is inactive: -2.1%. On to `Cn1nc(-c2ccc(C(=O)Nc3ccc(OC(F)(F)F)cc3)cc2)c2ccccc2c1=O`, for which the activation is inactive: 14.8%. Turning to `N#C/C(=C\c1ccc(-c2ccc(Cl)c(C(=O)O)c2)o1)c1nc2ccccc2[nH]1`, the activation is inactive: -0.738%. In the case of `Cc1ccc(-n2c(SCc3ccccc3C)nc3[nH]ncc3c2=O)cc1C`, the activation is inactive: -48%.

`O=C(NCc1ccccc1Cl)C(=O)NCC(c1cccs1)S(=O)(=O)c1ccccc1` (stereo not given): the activation was inactive: 0.0742%. Under `Cc1cccn2c(=O)c3cc(C(=O)NC(C)c4ccccc4)c(=N)n(CCOCCO)c3nc12` (stereo not given) stands inactive: 3.11%; under `COc1ccc2c(c1)Cc1sc(NC(=O)c3ccc(Cl)cc3)nc1-2`, inactive: -32.8%. In the case of `CCCSc1ncc(Cl)c(C(=O)NCc2ccc(C)cc2)n1`, the activation was inactive: -8.99%.

Turning to `COc1ccc(CNC(=O)CCS(=O)(=O)c2cc3c4c(c2)CCN4C(=O)CC3)cc1OC`, the activation was inactive: 0%. Regarding `Cc1cc(Cl)ccc1NC(=O)CCS(=O)(=O)c1ccc2c(c1)CC(C)N2C(=O)C1CC1` (stereo not given), the activation is inactive: 1.31%. Under `CCOC(=O)c1c(C)[nH]c(CCC(=O)NCc2cc(Br)ccc2OC)c1C` stands inactive: -20.9%. With `COc1ccc(C2C(C(=O)Nc3cccnc3)=C(C)Nc3nc(-c4ccc(OC)c(OC)c4)nn32)cc1` (stereo not given), the activation is inactive: -2.92%. Under `O=C(Nc1cc(Cl)ccc1O)c1cc(-c2ccc3c(c2)OCO3)on1` stands inactive: 9.42%; under `Cc1c(C(=O)N2CCCC2)oc2c1-c1nn(CC(=O)NCc3ccccc3F)cc1CC2`, inactive: -2.73%; under `CCc1nn2c(=O)c(S(=O)(=O)Nc3ccc(C)cc3C)c(C)nc2s1`, inactive: -5.17%.

As to `COc1ccc(-c2nc(CSCC(=O)NCCc3ccc(OC)c(OC)c3)c(C)o2)cc1`, the activation is inactive: -10.8%.

For `Cc1sc(NC(=O)C2c3ccccc3Oc3ccccc32)c(C(=O)OC(C)C)c1C`, the activation was inactive: -13.9%. Under `Cc1ccc(S(=O)(=O)c2nnn3c2nc(N(C)Cc2ccccc2)c2cc(Cl)ccc23)cc1C` stands inactive: -12.8%; under `COc1ccccc1CNC(=O)c1cc2cccc3c2n1CCS3`, inactive: -13.5%; under `CC(C)NC(=O)C1=CC(c2ccc3c(c2)OCO3)=NS(=O)(=O)N1C`, inactive: -4.96%. Under `O=C(CS(=O)(=O)c1nc(-c2ccc(Cl)cc2)cn1-c1ccccc1)Nc1cccc(Cl)c1` stands inactive: -2.75%. As for `O=C(Cn1c2ncccc2c(=O)n1-c1ccccc1)NCc1ccccc1`, the activation was inactive: -16.1%. Under `O=C(NCc1ccccc1Cl)c1cc(-c2ccccc2)n[nH]1` stands inactive: 11.4%; under `Cc1oc(-c2cccc(Br)c2)nc1CN1CCC(C(=O)NCc2ccccc2)CC1`, inactive: 0.192%; under `Cc1ccc(NC(=O)c2ccc(F)c(S(=O)(=O)NCCc3ccccc3)c2)cc1F`, inactive: 20.2%.

Take `CC(C)NCC(O)c1cc(O)cc(O)c1` (stereo not given): the activation was inactive: 6.49% and inactive: 1.82%.

On to `Cc1nc(-c2ccccc2)sc1-c1ccc(SCC(=O)Nc2ccccc2)nn1`, for which the activation is inactive: -11.5%. Under `COc1cccc(CNC(=O)Cc2c(C)c3cc4c(C)coc4cc3oc2=O)c1` stands inactive: -8.95%. Under `COc1cccc(C2C(C(N)=O)=C(C)Nc3nc(CCCO)nn32)c1` (stereo not given) stands inactive: -0.0788%. Under `COc1cccc(NC(=O)c2csc3c2CCCCC3)c1` stands inactive: -34.9%; under `CCc1ccc(NC(=O)N2CCN(c3nnc(C)c4c(C)n(-c5ccc(Cl)cc5)nc34)CC2)cc1`, inactive: 4.08%; under `Cc1cc(C)cc(NC(=O)CSc2nccn2C2CCCC2)c1`, inactive: -16.2%.

With `c1ccc(Nc2c(-c3ccccc3)nc3ncccn23)cc1`, the activation is inactive: 0.0884%.

`Cc1ccc(CNCc2ccc3c(c2)n(C)c(=O)n3C)cc1`: the activation is inactive: -4.16%. Under `O=C(CCNS(=O)(=O)c1ccc(Br)s1)Nc1ccc(Br)cc1` stands active: 88.6%. For `COc1cc(NS(=O)(=O)c2ccc(NC(=O)COc3ccc(Cl)cc3Cl)cc2)nc(OC)n1`, the activation is inactive: -11.8%. Under `CCOc1cccc(CC(=O)NCc2ccc3c(c2)CCN3C(=O)c2cccc(C)c2)c1OCC` stands inactive: -1.19%; under `COc1ccc(CN(C(=O)Nc2cc(C)ccc2C)C2CCN(C(C)=O)CC2)cc1`, inactive: -9.39%; under `CCN1C(=O)c2ccccc2Sc2ccc(NC(=O)Cc3ccc(OC)c(OC)c3)cc21`, inactive: -4.9%. In the case of `COc1ccc2c(c1)c(=O)c(S(=O)(=O)c1ccc(F)cc1)cn2CC(=O)Nc1ccc(C)cc1C`, the activation was inactive: 11.5%. Take `O=C(NCc1ccccc1Cl)C(=O)NCC(c1ccc2c(c1)OCO2)N1CCOCC1` (stereo not given): the activation is inactive: -13.6%.

Take `COc1ccc(CNC(=O)c2cnc3sc4cc(OC)ccc4n3c2=O)cc1`: the activation is inactive: 3.03%. In the case of `CCOc1ccc(NC(=O)CSc2nc(-c3ccccc3)c3cc(OCC)ccc3n2)cc1`, the activation was inactive: -16.6%. Under `CCOc1ccccc1N(CC)C(=O)Cn1ncc2c1-c1ccccc1OC2` stands inactive: 28.3%; under `O=C(c1cc(S(=O)(=O)N2CCCC2)c[nH]1)N1CCN(c2cccc(Cl)c2)CC1`, inactive: -1.63%. Under `CCOc1ccc2nc(N(Cc3cccnc3)C(=O)c3ccco3)sc2c1` stands inactive: -26.1%; under `CCC(CC)C(=O)N1CCc2cc(OC)c(OC)cc2C1COc1ccc2c(C)cc(=O)oc2c1` (stereo not given), inactive: -4.19%; under `COc1ccc(CNC(=O)C2CCN(C(=O)N3CCOc4ccc(C)cc43)CC2)cc1`, inactive: -7.62%. Under `CCc1cc(C(=O)N2CCN(c3ccccc3)CC2)no1` stands inactive: 11.1%; under `CC1CCCN(C(=O)c2ccc(CSc3nc4ccncc4n3Cc3ccccc3)cc2)C1` (stereo not given), inactive: -7.72%.

Turning to `O=C(NCc1ccc(Cl)cc1)c1cc2cccc3c2n1CCS3`, the activation is inactive: -19.2%. Regarding `COc1ccccc1N1CCN(c2c3c(nc4nncn24)CCC3)CC1`, the activation is inactive: -15.6%. `CC(C)(C)NC(=O)Cn1cc(S(=O)(=O)Cc2ccccc2Cl)c2ccccc21`: the activation is inactive: -10.3%.

For the compound `Cc1cccc(-n2c(=O)c3c(c4cc(C)ccc4n3C)n(CC(=O)Nc3ccc(C)c(C)c3)c2=O)c1`, the activation is inactive: -3.45%. Under `COC(=O)c1sccc1S(=O)(=O)N(CC(=O)NCc1ccc(F)cc1)c1ccccc1` stands inactive: -3.71%; under `Cc1cccc(NC(=O)Cn2c(=O)n(Cc3nc(-c4ccccc4)no3)c(=O)c3ccccc32)c1`, inactive: 0.717%.

As for `COc1ccc(C)cc1NS(=O)(=O)c1ccc2c(c1)CCCN2C(C)=O`, the activation is inactive: -15.2%. On to `CCOC(=O)Cn1c(=N)n(CCOc2ccc(OC)cc2)c2ccccc21`, for which the activation was inactive: 22.9%.
